Assay results taken from the antibiotic and cytotoxicity screens of Wong et al. (2023).
The other results are listed elsewhere or left out.

Test system: HSkMC (human skeletal muscle cells)
Assay: cytotoxicity call (relative viability < 0.9)
Settings: 10 µM

Row | Compound | cytotoxicity call
1 | CS(=O)(=O)O.OC(CCN1CCCCC1)(c1ccccc1)c1ccccc1 | inactive
2 | C[C@H](CO)N1C[C@H](C)[C@H](CN(C)Cc2ccc(Oc3ccccc3)cc2)Oc2ccc(NS(=O)(=O)c3ccc(Cl)cc3)cc2CC1=O | active
3 | C[C@@H]1CN([C@@H](C)CO)C(=O)Cc2cc(NS(C)(=O)=O)ccc2O[C@H]1CN(C)Cc1ccc(C(=O)Nc2ccccc2N)cc1 | inactive
4 | C[C@H](CO)N1C[C@H](C)[C@H](CN(C)S(=O)(=O)c2ccc(F)cc2)Oc2ccc(NS(=O)(=O)c3cn(C)cn3)cc2CC1=O | inactive
5 | C[C@@H]1CCCCO[C@H](CN(C)C(=O)Nc2ccc3c(c2)OCO3)[C@H](C)CN([C@H](C)CO)C(=O)c2cc(NC(=O)Nc3ccc(F)cc3)ccc2O1 | inactive
6 | C[C@H](CO)N1C[C@H](C)[C@@H](CN(C)Cc2cccc(C(=O)O)c2)Oc2ncc(C#CCN(C)C)cc2C1=O | inactive
7 | Cn1cnc(S(=O)(=O)N2C[C@H](O)COC[C@H]3O[C@H](CC(=O)NCc4cccc(F)c4)CC[C@@H]32)c1 | inactive
8 | COCC#Cc1cnc2c(c1)C(=O)N([C@@H](C)CO)C[C@@H](C)[C@H](CN(C)C(=O)Nc1ccccc1OC)O2 | inactive
9 | C[C@H](CO)N1C[C@H](C)[C@@H](CN(C)C(=O)Nc2cccc3ccccc23)OCCCC[C@H](C)Oc2ccc(NC(=O)Nc3ccc4c(c3)OCO4)cc2C1=O | inactive
10 | C[C@@H]1CN([C@@H](C)CO)C(=O)c2cc(NC(=O)Nc3ccc(C(F)(F)F)cc3)ccc2O[C@@H](C)CCCCO[C@H]1CN(C)C(=O)Cc1ccccc1 | active
11 | Cc1noc(C)c1S(=O)(=O)N(C)C[C@@H]1Oc2ccc(NS(=O)(=O)c3ccc(F)cc3)cc2CC(=O)N([C@H](C)CO)C[C@@H]1C | inactive
12 | COc1ccccc1CNC(=O)C[C@H]1C[C@@H]2c3cc(NC(=O)Nc4ccc(C(F)(F)F)cc4)ccc3O[C@@H]2[C@@H](CO)O1 | inactive
13 | C[C@@H]1CCCCO[C@@H](CN(C)C(=O)c2ccccc2)[C@@H](C)CN([C@H](C)CO)C(=O)c2cc(NC(=O)NC3CCCCC3)ccc2O1 | inactive
14 | CC(C)NC(=O)Nc1cccc2c1O[C@@H](CN(C)S(=O)(=O)c1cccs1)[C@@H](C)CN([C@H](C)CO)C2=O | inactive
15 | COc1ccc(CN(C)C[C@H]2OCCCC[C@H](C)Oc3ccc(NC(=O)CCC(F)(F)F)cc3C(=O)N([C@H](C)CO)C[C@@H]2C)cc1 | inactive
16 | Cn1cnc(S(=O)(=O)N2C[C@H](O)COC[C@@H]3O[C@@H](CC(=O)N4CCN(c5ccccc5)CC4)CC[C@H]32)c1 | inactive
17 | C[C@@H]1CCCCO[C@H](CN(C)Cc2ccc3c(c2)OCO3)[C@@H](C)CN([C@H](C)CO)C(=O)c2cc(NC(=O)NC3CCCCC3)ccc2O1 | inactive
18 | C[C@@H]1CN([C@H](C)CO)C(=O)c2cccc(NC(=O)Nc3cccc4ccccc34)c2O[C@@H]1CN(C)S(=O)(=O)c1ccc(F)cc1 | inactive
19 | C[C@@H]1CCCCO[C@H](CN(C)C(=O)NC2CCCCC2)[C@@H](C)CN([C@@H](C)CO)C(=O)c2cc(NS(=O)(=O)c3cccs3)ccc2O1 | inactive
20 | C[C@H]1CN([C@@H](C)CO)C(=O)c2cccc(NS(=O)(=O)c3ccc(F)cc3)c2O[C@H]1CN(C)Cc1ccc(Cl)c(Cl)c1 | inactive

Row | Compound | cytotoxicity call
21 | Nc1ccc(-n2cnnn2)cc1 | inactive
22 | COc1cccc(CN(C)C[C@H]2OCc3ccccc3-c3c(n(C)c4ccccc34)C(=O)N([C@@H](C)CO)C[C@@H]2C)c1 | inactive
23 | O=C(C[C@H]1C[C@H]2c3cc(NC(=O)Cc4ccncc4)ccc3O[C@H]2[C@H](CO)O1)NCCN1CCCCC1 | inactive
24 | COc1ccc(NC(=O)Nc2ccc3c(c2)C(=O)N([C@@H](C)CO)C[C@@H](C)[C@H](CN(C)Cc2ccccc2)OCCCC[C@H](C)O3)cc1 | inactive
25 | CCNc1ncnc2c1nnn2C | inactive
26 | C[C@@H]1CCCCO[C@@H](CN(C)S(=O)(=O)c2cccs2)[C@@H](C)CN([C@H](C)CO)C(=O)c2cc(NC(=O)Nc3ccc(C(F)(F)F)cc3)ccc2O1 | inactive
27 | C[C@@H]1CCCCO[C@@H](CN(C)C(=O)Nc2ccc3c(c2)OCO3)[C@@H](C)CN([C@@H](C)CO)C(=O)c2cc(NC(=O)Cc3ccccc3)ccc2O1 | inactive
28 | C[C@@H]1CN([C@H](C)CO)C(=O)CCCn2cc(nn2)CO[C@H]1CN(C)C(=O)Nc1cccc(Oc2ccccn2)c1 | inactive
29 | C[C@H]1CN([C@@H](C)CO)C(=O)c2cccc(NS(=O)(=O)c3cccs3)c2O[C@H]1CN(C)S(=O)(=O)c1ccc(F)cc1 | inactive
30 | O=C(CN1CCOCC1)NCC[C@@H]1CC[C@H](NS(=O)(=O)c2ccc(Cl)cc2)[C@H](CO)O1 | inactive
31 | CN1C(=O)c2cc(NC(=O)C3CCOCC3)ccc2OC[C@H]2O[C@@H](CC(=O)NCCc3ccncc3)CC[C@H]21 | inactive
32 | COc1ccc(NC(=O)N2C[C@H](O)COC[C@H]3O[C@H](CC(=O)NC4Cc5ccccc5C4)CC[C@@H]32)cc1 | inactive
33 | CNC[C@H]1Oc2c(NS(=O)(=O)c3cn(C)cn3)cccc2C(=O)N([C@H](C)CO)C[C@@H]1C | inactive
34 | Cc1ccc(S(=O)(=O)N(C)C[C@@H]2OCCCC[C@@H](C)Oc3ccc(NC(=O)Nc4cccc5ccccc45)cc3C(=O)N([C@@H](C)CO)C[C@@H]2C)cc1 | inactive
35 | O=C(C[C@H]1CC[C@H]2[C@@H](COC[C@H](O)CN2S(=O)(=O)c2ccccc2)O1)NCc1ccc2c(c1)OCO2 | inactive
36 | Cc1ccc(S(=O)(=O)N(C)C[C@H]2Oc3ncc(C#CC4(O)CCCC4)cc3C(=O)N([C@@H](C)CO)C[C@H]2C)cc1 | inactive
37 | C[C@H](CO)N1C[C@H](C)[C@@H](CN(C)S(=O)(=O)c2cccs2)Oc2ccc(NS(C)(=O)=O)cc2CC1=O | inactive
38 | C[C@@H]1CCCCO[C@@H](CN(C)C(=O)CCC(F)(F)F)[C@@H](C)CN([C@@H](C)CO)C(=O)c2cc(NS(=O)(=O)c3ccc(F)cc3)ccc2O1 | inactive
39 | C=CCNC(=O)C(=O)NC[C@H]1OCCCN1S(=O)(=O)c1ccccc1 | inactive
40 | O=C(CCc1ccc(O)cc1)c1c(O)c([C@@H]2O[C@H](CO)[C@@H](O)[C@H](O)[C@H]2O)c(O)c([C@@H]2O[C@H](CO)[C@@H](O)[C@H](O)[C@H]2O)c1O | inactive
